Data as given in the supplement of paper PMC6089552.
In all, about 3,200 compounds went through this assay and about 300 (9.4%) showed activity. This is a selection; strong and weak results do not stand in their true shares.

System: A673/TR/shEF
Assay: cell viability (LOESS-normalised, relative to median of negative controls) (log2 ratio); higher = more viable cells (less compound effect), active = hit call of the paper (over 3 MAD below the median)
Settings: treatment time: 72 h
How it was run: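 Doxycycline, present or absent from 24 h before compounds, was used to induce EWS-FLI1 shRNA knockdown in A673/TR/shEF Ewing sarcoma cells at 1,500 per well in 384-well plates. Cells then received library compounds at two or more concentrations, or DMSO controls, for three days. Viability was measured by CellTiter-Glo luminescence on an Envision reader, and per-plate LOESS correction, division by the negative-control median and log2 transformation followed.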

[1] = 0.25 µM, library screen: screen2, EWS-FLI1 expression: high (no doxycycline)
[2] = 0.25 µM, library screen: screen2, EWS-FLI1 expression: low (doxycycline-induced shRNA knockdown)
[3] = 2.5 µM, library screen: screen2, EWS-FLI1 expression: high (no doxycycline)
[4] = 2.5 µM, library screen: screen2, EWS-FLI1 expression: low (doxycycline-induced shRNA knockdown)
[5] = 0.25 µM, library screen: screen1, EWS-FLI1 expression: high (no doxycycline)
[6] = 0.25 µM, library screen: screen1, EWS-FLI1 expression: low (doxycycline-induced shRNA knockdown)
[7] = 2.5 µM, library screen: screen1, EWS-FLI1 expression: high (no doxycycline)
[8] = 2.5 µM, library screen: screen1, EWS-FLI1 expression: low (doxycycline-induced shRNA knockdown)
[9] = 0.103 µM, library screen: screen3, EWS-FLI1 expression: high (no doxycycline)
[10] = 0.103 µM, library screen: screen3, EWS-FLI1 expression: low (doxycycline-induced shRNA knockdown)
[11] = 0.308 µM, library screen: screen3, EWS-FLI1 expression: high (no doxycycline)
[12] = 0.308 µM, library screen: screen3, EWS-FLI1 expression: low (doxycycline-induced shRNA knockdown)
[13] = 0.926 µM, library screen: screen3, EWS-FLI1 expression: high (no doxycycline)
[14] = 0.926 µM, library screen: screen3, EWS-FLI1 expression: low (doxycycline-induced shRNA knockdown)
[15] = 2.8 µM, library screen: screen3, EWS-FLI1 expression: high (no doxycycline)
[16] = 2.8 µM, library screen: screen3, EWS-FLI1 expression: low (doxycycline-induced shRNA knockdown)
[17] = 8.3 µM, library screen: screen3, EWS-FLI1 expression: high (no doxycycline)
[18] = 8.3 µM, library screen: screen3, EWS-FLI1 expression: low (doxycycline-induced shRNA knockdown)
[19] = 25 µM, library screen: screen3, EWS-FLI1 expression: high (no doxycycline)
[20] = 25 µM, library screen: screen3, EWS-FLI1 expression: low (doxycycline-induced shRNA knockdown)

Measured: cell viability (log2)

O=C1c2c(O)cc(O)cc2OC(c2ccc(O)c(O)c2)C1O (centres undefined)
inactive: [1] 0.133 | [2] 0.0297 | [3] 0.102 | [4] 0.0627

COc1cc2cccc(OC)c(=O)c2c(OC)c1OC
inactive: [5] 0.0955 | [6] 0.0427 | [7] 0.109 | [8] 0.0214

COc1ccc(/C=C(/NC(=O)c2ccccc2)C(=O)N2CCCCCC2)cc1OC
inactive: [5] 0.12 | [6] 0.0586 | [7] 0.088 | [8] 0.085

CNCC[C@H](Oc1ccc(C(F)(F)F)cc1)c1ccccc1
inactive: [1] 0.139 | [2] 0.0447 | [3] 0.143 | [4] 0.0871

CCCCC(=O)O[C@]1(C(=O)CO)[C@@H](C)C[C@H]2[C@@H]3CCC4=CC(=O)C=C[C@]4(C)[C@@]3(F)[C@@H](O)C[C@@]21C
inactive: [9] 0.0682 | [10] 0.0203 | [11] 0.15 | [12] 0.127 | [13] 0.127 | [14] 0.135 | [15] 0.129 | [16] 0.136 | [17] 0.0174 | [18] 0.103 | [19] 0.1 | [20] 0.187

COc1cc(C(=O)N2CCOCC2)cc(OC)c1OC
inactive: [5] 0.0822 | [6] 0.0424 | [7] 0.092 | [8] 0.0641

CC(=O)OCC(=O)[C@@]1(O)CC[C@H]2[C@@H]3CCC4=CC(=O)CC[C@]4(C)[C@H]3C(=O)C[C@@]21C
inactive: [9] 0.0994 | [10] 0.124 | [5] 0.0838 | [6] 0.0179 | [1] 0.23 | [2] 0.145 | [11] 0.101 | [12] 0.118 | [13] 0.038 | [14] 0.116 | [7] 0.177 | [8] 0.135 | [3] 0.207 | [4] 0.0904 | [15] 0.0544 | [16] 0.064 | [17] 0.0695 | [18] 0.0799 | [19] 0.0909 | [20] 0.134

C[C@H]1C[C@H]2[C@@H]3CCC4=CC(=O)C=C[C@]4(C)[C@@]3(Cl)[C@@H](O)C[C@]2(C)[C@@]1(O)C(=O)CO
inactive: [1] 0.128 | [2] 0.136 | [3] 0.123 | [4] 0.122

COc1cc2nc(N3CCN(C(=O)C4CCCO4)CC3)nc(N)c2cc1OC (centres undefined)
inactive: [1] 0.137 | [2] 0.0786 | [3] 0.219 | [4] 0.0762

Oc1ccc(O)cc1
inactive: [5] 0.173 | [6] -0.00289 | [1] 0.117 | [2] 0.0439 | [7] 0.159 | [8] -0.0565 | [3] 0.0822 | [4] 0.0421

CC1CCC(NC(=O)N(CCCl)N=O)CC1 (centres undefined)
inactive: 0.025 µM, library screen: screen2, EWS-FLI1 expression: high (no doxycycline) -0.0398 | 0.025 µM, library screen: screen2, EWS-FLI1 expression: low (doxycycline-induced shRNA knockdown) 0.0242 | [1] -0.0116 | [2] 0.0352 | [3] 0.0888 | [4] -0.00139 | 25 µM, library screen: screen2, EWS-FLI1 expression: high (no doxycycline) 0.114 | 25 µM, library screen: screen2, EWS-FLI1 expression: low (doxycycline-induced shRNA knockdown) 0.0494

CC1=C2C(O)C(=O)OC3CC4C(C)(C)C(=O)C=C[C@]4(C)C(CC1)[C@]23C (some centres undefined)
inactive: [5] 0.0331 | [6] -0.0037 | [7] 0.0845 | [8] 0.0593

Nc1ccc(S(=O)(=O)Nc2ccc(Cl)nn2)cc1
inactive: [5] 0.0457 | [6] 0.0408 | [7] 0.127 | [8] 0.0691

CC(=O)NC(C(=O)O)C(C)(C)SN=O (centres undefined)
inactive: [5] 0.0237 | [6] 0.0738 | [7] 0.0839 | [8] 0.0215

COc1ccccc1C1NC(=S)NC(C)=C1C(=O)Nc1ccccc1Cl (centres undefined)
inactive: [5] 0.153 | [6] 0.0944 | [7] 0.107 | [8] 0.0425

COc1cc(CN2CCN(Cc3ccc(C(F)(F)F)cc3)CC2)cc(OC)c1OC
inactive: [5] 0.0718 | [6] 0.0154 | [7] 0.146 | [8] 0.075

C[n+]1cccc(C(=O)[O-])c1
inactive: [5] -0.0209 | [6] 0.0759 | [7] 0.123 | [8] 0.144

COc1cc(/C=C/C(=O)O)ccc1O
inactive: [5] 0.0581 | [6] -0.0401 | [7] 0.12 | [8] -0.00647
